Test results published in the supplement of paper PMC10126150.
Sequences with one replicate were seen in a single cluster, so their values are uncertain.

System: ATP
Experiment: switch fluorescence ratio, 500 uM ATP over buffer (Cy3 cluster intensity, sum of 5 cycles each) (fold (ratio)); higher = stronger signal-on switching upon ATP binding; sequences stand for … in TCGTCGGCAGCGTCAGATGTGTATAAGAGACAGTTTTTTTTTTTTTTTTTTTTTTTTT…TC
Details: aptamer strand: ATP DNA aptamer (quencher-CACCTGGGGGAGTATTGCGGAGGAAGG + anchor), 100 nM annealed; ATP concentration: 500 uM; one replicate
In short: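 Five buffer/ATP imaging cycles were run on Cy3-labelled switching-strand clusters on a modified Illumina MiSeq flow-cell, with NaOH stripping and re-annealing between cycles. In each cycle, clusters annealed to 100 nM quencher-labelled ATP aptamer were imaged in selection buffer, then after 15 min with 500 uM ATP at 22 °C. Per cluster, the fluorescence ratio is summed target-cycle over summed buffer-cycle Cy3 intensity, averaged per switch-domain sequence. Only clusters within 100-1000 RFU were kept.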
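Further: ATP exposure 15 min at 22 °C before imaging.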

Sequence	switch fluorescence ratio
ATTGGGTGGG	0.97
CTATGCCGCA	1.09
TTTGCACGCG	1.03
TCTTGTCTTC	1.34
TGGTGGCATT	1.14
ATCACGATAC	1.88
AGCAATTTCA	1.33
CATCTAAATC	2.06
TACAGTCATT	1.02
CGGTACATTT	1.03
TTGCATGGCA	1.01
CTAACGCAGT	1.18
GAAGTTCCGT	1.06
GATGGTCAAA	1
ACAGAGGTCA	1.01
CTCCGGCAC	1.55
TTGACTAAGC	1.01
TCGCGGTCAC	2.13
ACATCAAAAA	1
TCTGGACCGA	0.998
TGTCGAGCAC	1.04
GGTTGGGCAT	1.02
TCACTTCGTC	1.03
TTCCTGCCAC	1.74
GGTTACGACT	0.973
CTCACGAGGG	1.02

Sequence	switch fluorescence ratio
GAAAGGGTCT	1.01
CCTACCAAAG	2.46
TGCTAAAAGG	0.989
AGGATAACGA	1.04
TAATCATTGT	1
ATCACTATGG	1.01
TGGAGCCAT	1.07
GTTGCTGGAG	1.01
GGTACAGGTG	2.82
AATGTGCCCT	0.973
GGAAGGCAC	1.02
AGTTATTCAC	1.06
GAGGCGGGCT	0.984
TTTTGCATCT	1.03
GCAGGGGTGT	1.07
GCGGTAAGGA	1.02
CTTGGTCCGT	1.07
TGGATATGCG	1.01
TGTCACGGTG	1.04
AGAGGCACGG	1.03
AAGACACCGC	1.1
ACCTAGGCGT	1.03
TAGTAAAAGC	1.05
TGTCACTTCA	1.1
TTGCCATTCT	1.02
TTGCGAGATG	0.987

Sequence	switch fluorescence ratio
ATCTGGTTGG	1.03
AGATAATTTA	0.976
TGCACCTCAG	1.08
GCTGCGGACT	1.06
AGGTACGGCA	1.08
TGTAGATTGG	0.964
GTGCTTGTGC	0.982
CCACGCGTAA	2.09
CCTTTATTCA	1.05
CTAGTAGTCC	1.01
AAAAAAGATG	1.01
CGGAGTTAG	1.07
TGCGCCGATG	1.04
GGTGTTTAGG	1.05
TTAGTATGG	0.991
AGTCCGTTTT	1
ATTGTCGTCT	1.14
AAATAGGGCG	0.99
TCCGGGAGGC	1.32
GTCATCTGTA	0.998
TGGTGCGAAG	0.999
CTAGGAGTCC	1.02
TATCCAAAAT	1.05
CTTACAGC	1.06
GGCCAATGAC	1.02
AGTGAAATCA	0.989

Sequence	switch fluorescence ratio
GAACCATGGT	1.05
TCCCTTTTTG	0.959
GTACGTTTAG	1.05
TTCTAGATGA	0.955
CTATCAGCCG	1.03
GTGGGGTACC	0.975
ACGGTGTGGG	1.01
CGTTATAGGG	0.975
TTAGGTTTAC	0.978
TAACCTCCAT	1.02
TCACAATTAT	0.99
AAAGGAATTA	0.961
CACGAATGAG	1.02
GCGCAAGGAT	1.04
TTGATCCGC	1.63
TGTTTCTAGA	0.988
CTCGGCAAAA	3.96
CACATAGATT	0.956
CTACGTCCTC	1.23
TTACCCCCAG	2.18
TAAAGTGCAA	1.05
TTAGAACGTA	1.05
GGACCCCATG	1.05
AGGTATTAG	0.982
GAGTAAACGA	1.03
AAAAACCTA	1.07

Sequence	switch fluorescence ratio
CGACATCCGT	1.06
GAGACATGAG	1.03
ACCAGCGGGA	1.01
CAGAAAGGGA	1.03
TACAGTGGGG	0.991
ATTTCCGTGC	1.12
CCGGCGATCG	1.01
GCACTCTCAA	1.14
TTATGAGTGG	1.01
CTCTGATCTT	1.01
TCTTATGTCC	1
GAATAGTAGG	0.966
ACATGGGATA	1
TGGTGCTGGT	0.941
ACATTAGCGC	1.04
TACCATAAC	1.11
ATACGATCGT	0.979
AGATCCCCAT	1.03
CGCAGAGGA	1.03
TTGTAGTAGG	1.03
AAGATAAGAT	0.956
GCTTGCGCAG	1.05
TGCCAACTTT	0.93
AGCAGCTTCT	0.995
GACTTCCTAT	1.1
ATTTGTGAGT	0.957

Sequence	switch fluorescence ratio
ATCGATCACT	1.01
TCTTCTAACT	0.998
TTCCAGGCCT	0.981
ATGATACAGC	1.32
AATCTCAATC	1.13
TTATTGACAA	1
AACGCCCCAC	1.54
ACGATGCCGG	0.949
CTTTATACTT	0.985
CCCCCTTTGT	1.11
TGCGAGGCAG	1.15
TACGTTGGAA	1.01
GGTATATACT	1.05
GTAGAACGAT	1.03
ACGGCCAGGG	1.32
CGTAACGGAA	1.01
CATCTTAGAA	0.977
ACATTCGGAG	0.951
CAATGGTAGG	0.998
TCAATTGGCA	0.967
TGACTCGTTA	0.974
TTGATGATCG	1.13
GTCGGCTTGG	0.928
GTGATGTGGC	0.99
GGTCCCAAAC	1.05
GAATGTGGG	0.968

Sequence	switch fluorescence ratio
TCACGTGGAA	1.09
GCACGGTCAC	1.31
AAAGTGTCTC	1.01
GGAAGTACAT	1.43
CTTGTCGCGG	0.994
AATAAGCTAA	1.01
AGAGTAGTAG	0.974
CCAATCCGGG	1.03
CGATGACCAC	1.05
TGAACTCGAG	1.06
AGCATGCGCC	1.08
ATCTGGGTT	1.03
TAAAATTATC	0.994
ACATGAGATA	0.952
TTAAACTCCC	1.03
TTGTCCGGGC	1
ATGAGAGTGC	1.02
ATCTACGTCA	1.14
GTTACGTTTG	1.02
GTGCGGAGGG	0.976
CTGCAATAGG	4.44
TTACATAACT	1.09
GTGGATCGAC	0.945
TTGTTTC	0.977
TTATACAACG	1.01
TTTTCATTA	0.993

Sequence	switch fluorescence ratio
ACAGCCCAAA	0.989
GATAAACGTG	1
CGAGCAGTAT	1.73
CATGCGAGTA	0.981
CGGGTAGACC	1.04
GTCGTTTTTA	0.992
CATCTCGT	1.01
ACTGCGGAAT	2.43
TGGTATATCC	1.03
TGAGAATTAT	0.988
ATGTTACTCG	1.04
GCGTATGTGA	1
CACATGGGAC	0.999
CCGTTATGGC	1.33
CCCATCGGAA	1.04
AGCAACGAAC	1.78
GTGGTCGCGT	0.997
AGGTGCCGAC	1.01
ACGTCTATAT	1.08
